# Source: the supplement of paper PMC9433436
# ± gives the standard deviation of the averaged measurements. The full ranking holds about 4,100 sequences; the median of “relative kcat/Km (krel) vs genomic leader AAAGAU” is about 1.7, and the highest 2% start at about 6.5. The list shows a part of the results, in another mix than the full data.
# Target: T1, E. coli RNase P holoenzyme (M1 P RNA + rnpA protein) (UniProt P0A7Y8)
# T1 sequence: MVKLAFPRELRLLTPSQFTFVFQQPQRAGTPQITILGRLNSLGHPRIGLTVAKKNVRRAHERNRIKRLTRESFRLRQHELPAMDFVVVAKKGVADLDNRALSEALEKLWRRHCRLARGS
# Assay: relative kcat/Km (krel) vs genomic leader AAAGAU (relative (reference leader = 1)); higher = faster RNase P cleavage
# Description: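 HTS-Kin: a pool of ptRNA-Met (21C construct) with all 4096 combinations of 5' leader nucleotides N(-6) to N(-1) was processed in vitro by E. coli RNase P (P RNA + rnpA/C5 protein) under multiple-turnover conditions at 37 C, pH 8, 17.5 mM MgCl2. Residual substrate was Illumina-sequenced at several fractions reacted, and relative kcat/Km (krel) was computed by internal competition kinetics, calibrated to the genomic leader (AAAGAU = 1). The listed hexamer is the varied N(-6)..N(-1) leader (DNA letters), and it sits between a fixed 5' stem-loop flank (GCAUGCACGAAAGUGCGUGCUAUGAA) and the mature tRNA-Met starting GGCUACGUAGCUCAGUUGG. Two technical replicates are averaged.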
# [1] = fraction of substrate reacted: ~9-10% (9.79% repeat 1, 9.1% repeat 2)
# [2] = fraction of substrate reacted: ~13-16% (15.68% repeat 1, 13.17% repeat 2)
# [3] = fraction of substrate reacted: ~26-29% (28.66% repeat 1, 26.4% repeat 2)
Sequence,relative kcat/Km [1],relative kcat/Km [2],relative kcat/Km [3]
TATCTC,2.14 ± 0.37,2.32 ± 0.5,3.37 ± 1.5
TCTACG,0.904 ± 0.44,1.04 ± 0.67,2.26 ± 0.51
TTGATA,1.3 ± 0.25,1.33 ± 0.13,1.55 ± 0.51
ACAAAA,1.77 ± 0.97,1.83 ± 0.079,2.12 ± 0.64
CTTAGT,–,1.6 ± 1.2,2.07 ± 1.8
TATATA,2.57 ± 2,2.35 ± 0.29,3.54 ± 1.4
AGGAAT,1.06 ± 0.013,1.49 ± 0.47,1.71 ± 0.61
ATGGCC,1.33 ± 0.72,1.34 ± 0.38,1.03 ± 0.55
TTTGAG,–,–,1.1 ± 0.04
CAATTA,1.84 ± 1.5,1.86 ± 0.62,2.28 ± 0.56
GCACAC,–,0.487 ± 0.34,2.03 ± 0.68
CGGTAG,–,0.37 ± 0.12,0.591 ± 0.53
AAGAAT,2.06 ± 0.33,1.89 ± 0.36,3.17 ± 1.4
CAGGCT,–,–,0.394 ± 0.029
GACCGT,–,–,1.96 ± 1.6
CTGTAT,3.52 ± 0.71,3.09 ± 0.81,4.53 ± 1.6
CGTAAA,2.72 ± 0.049,3.22 ± 1.9,5.51 ± 2.3
TCTAAG,2.04 ± 1.6,1.47 ± 0.52,2.47 ± 0.27
ACTCTC,2.34 ± 0.92,2.14 ± 0.78,2.26 ± 0.68
CTTTGG,0.744 ± 0.3,–,–
CTCGTA,3.1 ± 0.69,3.21 ± 0.68,4.83 ± 2
AAGTAT,2.47 ± 0.78,2.76 ± 0.072,4.3 ± 2
GGTCTA,0.826 ± 0.33,0.795 ± 0.069,1.16 ± 0.36
ATCTTT,3.55 ± 1.4,4.27 ± 0.42,6.67 ± 2.8
ACATAA,3.21 ± 1.3,3.57 ± 0.46,5.11 ± 2.7
GTCTTA,4.14 ± 1.1,5.78 ± 0.74,7.65 ± 2.9

Sequence,relative kcat/Km [1],relative kcat/Km [2],relative kcat/Km [3]
CACATC,2.93 ± 1,3.64 ± 0.86,5.53 ± 2.1
CCTATA,2.09 ± 0.3,2 ± 0.19,2.67 ± 1.3
TAGTGC,1.81 ± 1.3,1.58 ± 0.22,2.06 ± 0.56
GTCGAG,2.05 ± 1.5,2.123 ± 0.001,4.03 ± 1.6
AATATA,2.2 ± 1.2,1.95 ± 0.23,2.59 ± 1.1
GGGGCT,–,–,1.09 ± 0.83
TCGAAT,2.64 ± 1.3,2.89 ± 0.13,4.3 ± 1.4
GAGGCC,0.984 ± 0.052,0.761 ± 0.51,0.613 ± 0.026
CCGGAA,1.7 ± 0.8,0.925 ± 0.78,1.27 ± 0.073
CTAGGA,1.07 ± 0.76,1.41 ± 0.22,0.67 ± 0.23
GGCTTA,1.58 ± 0.71,1.39 ± 0.29,1.79 ± 0.95
CTAGGT,–,–,1.39 ± 0.93
ACCAAC,–,2.14 ± 1.3,3.18 ± 0.23
TATACT,2.15 ± 0.77,2.03 ± 0.18,3.12 ± 1.6
TAGCTA,1.04 ± 0.16,1.25 ± 0.24,2.18 ± 0.59
TTAGGC,–,–,1.86 ± 1.6
GTGCCC,1.01 ± 0.23,0.583 ± 0.44,1.13 ± 0.088
GTTTCC,2.8 ± 0.93,2.65 ± 0.76,3.04 ± 1.2
CGTGAT,1.39 ± 0.58,1.75 ± 0.53,1.57 ± 0.94
TTTGTA,1.62 ± 0.57,1.66 ± 0.31,2.37 ± 0.96
AGGTCC,–,–,0.52 ± 0.25
CGGAGG,0.395 ± 0.29,–,–
TCTATA,2.09 ± 1.5,2.09 ± 0.89,3.24 ± 1.4
GCATCT,1.43 ± 0.64,1.64 ± 0.52,2.5 ± 0.57
CATTGG,–,0.554 ± 0.12,0.737 ± 0.17
TGTTGG,0.486 ± 0.11,–,0.805 ± 0.36
